The source of these data is paper PMC9911399, “Two distinct binding modes provide the RNA-binding protein RbFox with extraordinary sequence specificity”.

Numbering of substitutions follows the chain as printed; changes in the protein carry UniProt numbers. This is one part of the list.

Sequences and labels used below:
B1: CCGCACA (DNA:RNA)
RNA: GGGAGACCGGAAUUCAGAUUGUCCCCGCACAUUAAAUCCCGUCGUAGCCACCA
DNA 1: CAATCTGAATTCCGGTCTCCC
DNA 2: TGGTGGCTACGACGGGATT
B2: AGCUCGC (DNA:RNA)
RNA: GGGAGACCGGAAUUCAGAUUGUCCAGCUCGCUUAAAUCCCGUCGUAGCCACCA
DNA 1: CAATCTGAATTCCGGTCTCCC
DNA 2: TGGTGGCTACGACGGGATT
B3: CUUAUAA (DNA:RNA)
RNA: B1 RNA with C26U, G27U, C28A, A29U, C30A
DNA 1: CAATCTGAATTCCGGTCTCCC
DNA 2: TGGTGGCTACGACGGGATT
B4: UGCGGGA (DNA:RNA)
RNA: B2 RNA with A25U, U28G, C29G, C31A
DNA 1: CAATCTGAATTCCGGTCTCCC
DNA 2: TGGTGGCTACGACGGGATT
B5: GGCGGUU (DNA:RNA)
RNA: B2 RNA with A25G, U28G, C29G, G30U, C31U
DNA 1: CAATCTGAATTCCGGTCTCCC
DNA 2: TGGTGGCTACGACGGGATT
B6: AUGCUGA (DNA:RNA)
RNA: B1 RNA with C25A, C26U, A29U, C30G
DNA 1: CAATCTGAATTCCGGTCTCCC
DNA 2: TGGTGGCTACGACGGGATT
B7: UACUUCU (DNA:RNA)
RNA: B2 RNA with A25U, G26A, C29U, G30C, C31U
DNA 1: CAATCTGAATTCCGGTCTCCC
DNA 2: TGGTGGCTACGACGGGATT
B8: UACCUUG (DNA:RNA)
RNA: B2 RNA with A25U, G26A, U28C, C29U, G30U, C31G
DNA 1: CAATCTGAATTCCGGTCTCCC
DNA 2: TGGTGGCTACGACGGGATT
B9: CUGCUCG (DNA:RNA)
RNA: B1 RNA with C26U, A29U, A31G
DNA 1: CAATCTGAATTCCGGTCTCCC
DNA 2: TGGTGGCTACGACGGGATT
B10: CGGUCCG (DNA:RNA)
RNA: B2 RNA with A25C, C27G, G30C, C31G
DNA 1: CAATCTGAATTCCGGTCTCCC
DNA 2: TGGTGGCTACGACGGGATT
B11: UCGGGCG (DNA:RNA)
RNA: B1 RNA with C25U, C28G, A29G, A31G
DNA 1: CAATCTGAATTCCGGTCTCCC
DNA 2: TGGTGGCTACGACGGGATT
B12: UAAUAUG (DNA:RNA)
RNA: B2 RNA with A25U, G26A, C27A, C29A, G30U, C31G
DNA 1: CAATCTGAATTCCGGTCTCCC
DNA 2: TGGTGGCTACGACGGGATT
B13: AGCACAC (DNA:RNA)
RNA: B2 RNA with U28A, G30A
DNA 1: CAATCTGAATTCCGGTCTCCC
DNA 2: TGGTGGCTACGACGGGATT
B14: GCUACGC (DNA:RNA)
RNA: B2 RNA with A25G, G26C, C27U, U28A
DNA 1: CAATCTGAATTCCGGTCTCCC
DNA 2: TGGTGGCTACGACGGGATT
B15: GAAUGUA (DNA:RNA)
RNA: B2 RNA with A25G, G26A, C27A, C29G, G30U, C31A
DNA 1: CAATCTGAATTCCGGTCTCCC
DNA 2: TGGTGGCTACGACGGGATT
B16: UGGGUCA (DNA:RNA)
RNA: B1 RNA with C25U, C26G, C28G, A29U
DNA 1: CAATCTGAATTCCGGTCTCCC
DNA 2: TGGTGGCTACGACGGGATT
B17: AUGUGAA (DNA:RNA)
RNA: B2 RNA with G26U, C27G, C29G, G30A, C31A
DNA 1: CAATCTGAATTCCGGTCTCCC
DNA 2: TGGTGGCTACGACGGGATT
B18: CUCAAUG (DNA:RNA)
RNA: B1 RNA with C26U, G27C, C28A, C30U, A31G
DNA 1: CAATCTGAATTCCGGTCTCCC
DNA 2: TGGTGGCTACGACGGGATT
B19: GUACUCA (DNA:RNA)
RNA: B1 RNA with C25G, C26U, G27A, A29U
DNA 1: CAATCTGAATTCCGGTCTCCC
DNA 2: TGGTGGCTACGACGGGATT
B20: AUCUGUA (DNA:RNA)
RNA: B2 RNA with G26U, C29G, G30U, C31A
DNA 1: CAATCTGAATTCCGGTCTCCC
DNA 2: TGGTGGCTACGACGGGATT
B21: GGAUUGG (DNA:RNA)
RNA: B2 RNA with A25G, C27A, C29U, C31G
DNA 1: CAATCTGAATTCCGGTCTCCC
DNA 2: TGGTGGCTACGACGGGATT
B22: AUGAGGG (DNA:RNA)
RNA: B2 RNA with G26U, C27G, U28A, C29G, C31G
DNA 1: CAATCTGAATTCCGGTCTCCC
DNA 2: TGGTGGCTACGACGGGATT
B23: GUUAUUU (DNA:RNA)
RNA: GGGAGACCGGAAUUCAGAUUGUCCGUUAUUUUUAAAUCCCGUCGUAGCCACCA
DNA 1: CAATCTGAATTCCGGTCTCCC
DNA 2: TGGTGGCTACGACGGGATT
B24: GCGCUCA (DNA:RNA)
RNA: B1 RNA with C25G, A29U
DNA 1: CAATCTGAATTCCGGTCTCCC
DNA 2: TGGTGGCTACGACGGGATT
B25: CUGGAUG (DNA:RNA)
RNA: B1 RNA with C26U, C28G, C30U, A31G
DNA 1: CAATCTGAATTCCGGTCTCCC
DNA 2: TGGTGGCTACGACGGGATT
B26: UUGAGAC (DNA:RNA)
RNA: B23 RNA with G25U, U27G, U29G, U30A, U31C
DNA 1: CAATCTGAATTCCGGTCTCCC
DNA 2: TGGTGGCTACGACGGGATT
B27: ACGCGUA (DNA:RNA)
RNA: B1 RNA with C25A, A29G, C30U
DNA 1: CAATCTGAATTCCGGTCTCCC
DNA 2: TGGTGGCTACGACGGGATT
B28: CCUAUCG (DNA:RNA)
RNA: B1 RNA with G27U, C28A, A29U, A31G
DNA 1: CAATCTGAATTCCGGTCTCCC
DNA 2: TGGTGGCTACGACGGGATT
B29: GCCAGUC (DNA:RNA)
RNA: B23 RNA with U26C, U27C, U29G, U31C
DNA 1: CAATCTGAATTCCGGTCTCCC
DNA 2: TGGTGGCTACGACGGGATT
B30: CAGCGAG (DNA:RNA)
RNA: B1 RNA with C26A, A29G, C30A, A31G
DNA 1: CAATCTGAATTCCGGTCTCCC
DNA 2: TGGTGGCTACGACGGGATT
B31: CUUGAGG (DNA:RNA)
RNA: B1 RNA with C26U, G27U, C28G, C30G, A31G
DNA 1: CAATCTGAATTCCGGTCTCCC
DNA 2: TGGTGGCTACGACGGGATT

This experiment has as its target T1, RBFOX1 RRM (Homo sapiens, UniProt Q9NWB1 109-208).
T1 sequence: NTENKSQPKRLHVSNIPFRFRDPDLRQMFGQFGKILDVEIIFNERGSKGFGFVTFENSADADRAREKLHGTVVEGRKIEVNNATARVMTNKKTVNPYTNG
Put plainly: EMSA; HiTS-Eq, 1 nM pool, 10 min; buffer printed only for the single-RNA assays: 10 mM Tris pH 7.5, 150 mM NaCl, 3.4 mM EDTA, 0.001% NP-40, 30 C. The settings on record: tags: His6 N-terminal (pET28a); label: 5' 32P. The method, boiled down:
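Purified wild-type or mutant RbFox RRM at increasing concentrations was equilibrated with 1 nM of 5′-radiolabelled RNA carrying 7 randomized nucleotides for 10 min in 50 µL. Unbound RNA was separated by 8% native PAGE and sequenced. Relative association constants came from read-count changes of each RNA species compared with the control reaction, normalised to the cognate motif.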
Background: A gel shift assay detects complexes by their altered migration in electrophoresis.
For the molecule B1, the binding signal was 0.0109 KA relative to UGCAUGU.
For B2, the binding signal was 0.0182 KA relative to UGCAUGU.
Next, B3: 0.00174 KA relative to UGCAUGU.
Next, B4: 0.00758 KA relative to UGCAUGU; B5: 0.0237 KA relative to UGCAUGU.
As for B6, the binding signal was 0.0196 KA relative to UGCAUGU.
Next, B7: 0.00405 KA relative to UGCAUGU; B8: 0.0131 KA relative to UGCAUGU.
To B9 belongs 0.0406 KA relative to UGCAUGU; to B10, 0.0125 KA relative to UGCAUGU; to B11, 0.00968 KA relative to UGCAUGU.
To B12 belongs 0.0114 KA relative to UGCAUGU.
For the molecule B13, the binding signal was 0.00479 KA relative to UGCAUGU.
To B14 belongs 0.0169 KA relative to UGCAUGU.
On to B15, for which the binding signal was 0.0125 KA relative to UGCAUGU.
For the molecule B16, the binding signal was 0.0232 KA relative to UGCAUGU.
B17: the binding signal was 0.00694 KA relative to UGCAUGU.
To B18 belongs 0.00378 KA relative to UGCAUGU; to B19, 0.00475 KA relative to UGCAUGU.
Next, B20: 0.00557 KA relative to UGCAUGU; B21: 0.0233 KA relative to UGCAUGU; B22: 0.0104 KA relative to UGCAUGU.
As for B23, the binding signal was 0.00975 KA relative to UGCAUGU.
Next, B24: 0.0106 KA relative to UGCAUGU; B25: 0.0353 KA relative to UGCAUGU; B26: 0.00439 KA relative to UGCAUGU.
For B27, the binding signal was 0.00319 KA relative to UGCAUGU.
To B28 belongs 0.00527 KA relative to UGCAUGU; to B29, 0.0151 KA relative to UGCAUGU.
Regarding B30, the binding signal is 0.00935 KA relative to UGCAUGU.
For B31, the binding signal is 0.00861 KA relative to UGCAUGU.
